Measurements: PubChem BioAssay AID1159614 (National Center for Advancing Translational Sciences (NCATS), 2016)
About 65 (0.1%) of roughly 45,000 compounds were called active. The call rests on the fitted dose curve; in most records, active means well fitted activation curve with a large enough effect; inconclusive means small, poorly fitted or top-dose-only effect; inactive means no such curve, though single readings can be large or run the other way. Some of the results follow.

What follows are molecules tested against Galactocerebrosidase (Homo sapiens) (UniProt P54803) (assay: A Novel Cell-Based Assay to Identify Small Molecules for B -Galactocerebrosidase). Conditions: 145M-Twi-hGALC-G270D cells (Twitcher mouse brain line with human GALC G270D), HMU-beta-Gal fluorescence, 48 h; series mostly up to 57.5 µM; activation: at the top concentration.
Outline: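 Fluorogenic HMU-b-Gal hydrolysis (0.1 mM final, pH 5.2 citrate-phosphate with 1 mg/mL sodium taurocholate; carbonate stop buffer) measures mutant GALC activity after compound treatment of live 145M-Twi Twitcher brain cells stably carrying human GALC-G270D, with wild-type GALC line alongside; activation sought.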
Further: 0% is about no effect; nearly all actives have a fitted effect of over 65% in size.

Sequence of UniProt P54803 (P54803 whole entry, looked up): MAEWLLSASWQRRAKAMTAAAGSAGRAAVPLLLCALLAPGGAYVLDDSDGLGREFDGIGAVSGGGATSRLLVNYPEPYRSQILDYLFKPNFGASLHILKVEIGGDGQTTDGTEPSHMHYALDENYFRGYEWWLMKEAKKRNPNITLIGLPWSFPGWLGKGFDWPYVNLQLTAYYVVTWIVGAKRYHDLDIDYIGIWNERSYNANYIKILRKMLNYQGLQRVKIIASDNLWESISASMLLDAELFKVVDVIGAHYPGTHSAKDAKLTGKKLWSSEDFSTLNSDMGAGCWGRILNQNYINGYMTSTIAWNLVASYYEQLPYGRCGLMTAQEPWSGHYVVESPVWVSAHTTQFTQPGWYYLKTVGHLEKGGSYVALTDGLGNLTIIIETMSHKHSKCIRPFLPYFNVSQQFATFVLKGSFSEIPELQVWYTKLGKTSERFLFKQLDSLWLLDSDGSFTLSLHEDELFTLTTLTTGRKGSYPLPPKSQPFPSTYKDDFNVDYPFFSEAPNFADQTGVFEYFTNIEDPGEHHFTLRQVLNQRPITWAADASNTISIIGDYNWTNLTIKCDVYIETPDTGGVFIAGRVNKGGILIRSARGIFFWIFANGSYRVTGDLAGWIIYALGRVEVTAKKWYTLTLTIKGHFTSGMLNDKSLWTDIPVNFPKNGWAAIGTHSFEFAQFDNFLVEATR

activation, inactive:
O=C(OCC1(COC(=O)c2cccnc2)CCCC(COC(=O)c2cccnc2)(COC(=O)c2cccnc2)C1O)c1cccnc1 -8.21%, COc1ccc(C)cc1NC(=O)c1cc(S(=O)(=O)N2CCC(C)CC2)cn1C -9.49%, Cc1cccc(N2CCN(C(=O)c3c(C)oc4ncnc(N5CCOCC5)c34)CC2)c1C -9.71%, Nc1cc(=O)nc(SCC(=O)Nc2ccc(F)cc2)n1-c1cccc(Cl)c1 -16.6%, Cc1nn(C(=O)COc2ccccc2Br)c(C)c1Sc1ccccc1 -17.2%, COc1ccc(CCN2C(=O)N(c3ccc(C)cc3)C(=O)C2CC(=O)Nc2ccc(F)cc2)cc1 (configuration not stated) -16.5%, Cn1c(=O)c2[nH]cnc2n(C)c1=O -8.15%, COc1cccc(NC(=O)c2sc3nc(C)c(C(=O)Nc4ccc(Cl)cc4)c(-c4ccc(Br)cc4)c3c2N)c1 -14%, O=C(CSc1n[nH]c(-c2ccccc2)n1)N1CCN(c2ccccc2F)CC1 5.06%, CCc1ccc(NC(=O)C2CCC(CNS(=O)(=O)c3ccc4c(c3)C(C)(C)C(=O)N4C)CC2)cc1 (configuration not stated) -11%, COc1ccc2c(CNCc3ccccc3OC)c(C(=O)O)n(Cc3ccc(F)cc3Cl)c2c1 -15.4%, Cc1cccc(NC(=O)c2sc3nc(-c4ccccc4)cn3c2C)c1C 7%, CCOc1ccc(C(=O)N(Cc2cc(OC)c(OC)c(OC)c2)c2ccccn2)cc1 -39.2%, OCc1cnc(SCc2ccc(F)cc2)n1Cc1ccc(F)cc1 -16.1%, COc1ccc2c(Sc3ccc(C)cc3)c(C(=O)NCCc3ccccc3)[nH]c2c1 -17.1%, Cc1cc(OCCCn2c(CCNC(=O)C3CCCCC3)nc3ccccc32)ccc1Cl -20.6%, COc1ccc(N(CC(=O)Nc2cccc(C(C)=O)c2)S(=O)(=O)c2ccccc2)c(OC)c1 -11.3%, CCOC(=O)C1=C(C)NC(=O)NC1c1cn(-c2ccccc2)nc1-c1ccc(OC(C)C)cc1 (configuration not stated) -11.1%, Cc1nn(C)c2c1c(C(F)(F)F)cc(=O)n2C(C)C(=O)NCCc1ccccc1 (configuration not stated) -5.3%, O=C(Nc1nc2n(n1)C(c1ccc(Cl)cc1)C=C(c1ccccc1)N2)c1ccco1 (configuration not stated) -8.34%, CCc1nn(CC(=O)NCCCN2CCN(CC)CC2)c(=O)c2cc3occc3n12 -5.89%, CCOc1ccc(S(=O)(=O)c2cn(Cc3ccccc3C)c3ccc(OC)cc3c2=O)cc1 -17.5%, CCCOc1ccc(-c2nonc2NC(=O)c2oc3ccc(Cl)cc3c2C)cc1OCCC -11.3%, COc1ccccc1N(CC(=O)Nc1ccc2c(c1)OCO2)S(=O)(=O)c1ccc(C)cc1 7.8%, O=C(c1ccc(F)cc1)N1CCC(c2nc(-c3ccc(S(=O)(=O)N4CCCC4)cc3)no2)CC1 -12.4%, O=C(Cn1cnc2onc(-c3ccc(F)cc3)c2c1=O)Nc1ccc(F)c(Cl)c1 -22.6%, O=C(CN1c2ccccc2S(=O)(=O)c2ccccc21)Nc1ccccc1Cl -35.1%, COc1ccc(OC)c(NC(=O)CSc2ncc3c(n2)-c2ccccc2N(C)S3(=O)=O)c1 -12.6%, O=C(C1COc2ccccc2O1)N(Cc1cccnc1)c1nc2c(Cl)cccc2s1 (configuration not stated) -13.1%, NC(=O)Cn1c(=O)n(CCCCCC(=O)NCc2ccc(F)cc2)c(=O)c2sccc21 -0.584%, CCCNC(=O)c1ccc(-c2nc(CS(=O)(=O)c3ccc(C)cc3)c(C)o2)cc1 -7.44%, CCOC(=O)N1CCN(Cc2nc3cc(NC(=O)C(C)C)ccc3n2C(C)C)CC1 7.01%, O=C(c1ccc2c(c1)N(Cc1c(F)cccc1Cl)C(=O)c1ccccc1S2)N1CCOCC1 -1.07%, CCc1cccc(NC(=O)C2Cc3ccccc3N2C(=O)c2ccccc2)c1 (configuration not stated) 3.72%, CCOc1cccc(C2c3[nH]c4ccccc4c3CCN2C(=O)CSCc2ccc(F)cc2)c1 (configuration not stated) -1.33%, Cc1ccc2nc(COc3ccccc3NC(=O)c3ccccc3F)cc(=O)n2c1 -6.49%, Cc1ccc2c(c1)c(CC(=O)Nc1ccc(C)c(F)c1)c(C(=O)O)n2C -13.5%, CC1=C(C(=O)Nc2cccnc2)C(c2ccccc2)n2nc(SCc3ccccc3Cl)nc2N1 (configuration not stated) -11.7%, COc1ccc(C)cc1NC(=O)C1CCN(S(=O)(=O)c2ccc3c(c2)CCCN3C(C)=O)CC1 -15.5%, O=C(Nc1ccc(N2CCN(c3ccc(F)cc3)CC2)c(C(=O)O)c1)c1ccccc1F -6.58%, CCCCOc1ccc(Cn2c(=O)oc3ccc(C)cc32)cc1 -15.4%, Cc1ccc(CCNC(=O)Cn2ncc3c([nH]c4ccc(C)cc43)c2=O)cc1 -7.59%, CCc1ccc(NC(=O)CN2C(=O)C(c3ccc(F)cc3)=NC2(C)C)cc1 0.779%, CCOC(=O)c1ccc(NC(=O)CSc2nc3ccccc3c(=O)n2CCNC(C)=O)cc1 -8.7%, O=C(CS(=O)(=O)c1cccc2nsnc12)Nc1ccc(F)cc1 -9.31%, Cc1cccc(-c2nnn3c2nc(NCCc2ccc(S(N)(=O)=O)cc2)c2ccccc23)c1 4.04%, CCCN(CCC)CCNC(=O)Cn1cc2c(n1)-c1c(oc(C(=O)N3CCCC3)c1C)CC2 -19.8%, COc1ccc(OC)c(NC(=O)CSc2cn(CC(=O)N3CCCCCC3)c3ccccc23)c1 -8.66%, Cc1ccc(NC(=O)CSc2nc3ccccc3nc2Cc2ccccc2)c(C)c1 -10.2%, Cc1cccc(NC(=O)c2cc(-c3ccc4c(c3)OCCO4)on2)c1 -14.5%, Cc1cc(NCc2ccccc2Cl)n2cnnc2n1 -11.9%, CCOc1ccc(Cn2c(-c3ccc(OCC)c(OC)c3)nc3ccccc32)cc1OC -16.5%, COc1ccc(S(=O)(=O)Nc2nnc(CC(C)C)s2)cc1 -4.14%, COC(=O)c1cc(S(=O)(=O)NCC2CCN(Cc3ccc(F)cc3)CC2)c[nH]1 -4.61%, COCCNC(=O)CSc1nc2cc3c(cc2c(=O)n1CCCC(=O)NCc1ccc(OC)cc1)OCO3 0.376%, CCSc1ncc(Cl)c(C(=O)N(Cc2ccc(N(C)C)cc2)Cc2ccco2)n1 -34.4%, COCCNC(=O)c1ccc2c(c1)N(Cc1cc(C)ccc1C)C(=O)c1ccccc1S2(=O)=O -0.38%, COc1ccc(S(=O)(=O)N2CCN(c3ccc(Cl)c(Cl)c3)CC2)c2ccccc12 -7.35%, COc1ccc(CNC(=O)C2CCN(S(=O)(=O)c3ccc(F)cc3)CC2)cc1 -15.2%, CSc1ncc(C(=O)Nc2cccc(C)c2C)c(-c2ccccc2)n1 -8.63%, Cc1ccc(O)c2ncccc12 -12.8%, Cc1ccc(-c2nc(-c3cc4cccc(OCc5ccc(F)cc5)c4oc3=O)no2)cc1 -12.8%, CCN1CCc2nc3sc(C(=O)c4ccccc4)c(N)c3cc2C1 -11.6%, CCN(c1ccccc1)S(=O)(=O)c1nnc(NC(=O)C(C)(C)C)s1 -7.39%, CC(CNC(=O)c1ccc(CSc2nc3ccncc3n2Cc2ccc(F)cc2)cc1)c1ccccc1 (configuration not stated) -8.58%, COC(=O)c1ccc2c(c1)N(Cc1cc(C)ccc1C)C(=O)c1ccccc1S2 -27.9%, CCOc1ccc(CCNC(=O)Cn2c(=O)c3cccn3c3ccc(F)cc32)cc1OCC -16.7%, COC(=O)c1ccc(Cn2c(SCc3ccccc3F)nc3ccncc32)cc1 -0.428%, COc1ccc(-c2cc3ccc(O)c(CN4CCCC(C)C4)c3oc2=O)cc1 (configuration not stated) -23.9%, CCOc1ccc2nc(N3CCCC(C(=O)NCCCOC)C3)sc2c1 (configuration not stated) -7.26%, Cc1nc2nc(NCc3cccc(Cl)c3)[nH]n2c(=O)c1Cc1ccccc1 -2.86%, CC(=O)N1CCc2cc(S(=O)(=O)NC(CC(C)C)C(=O)NCCc3ccc(C)cc3)ccc21 (configuration not stated) -12%, COc1ccc(Cn2c(CCC(=O)Nc3ccc(C)c(C)c3)nc3cccnc32)cc1 -10.2%, CCCN(CCC)C(=O)CN1C(=O)CSc2ccc(S(=O)(=O)N3CCC(C)CC3)cc21 -16.4%, CCN(CC)S(=O)(=O)c1ccc2c(c1)nc(CN(C)C(=O)Nc1cccc(Cl)c1)n2C -15.2%, COc1cccc(C(=O)c2cn(CC(=O)Nc3cccc(C(F)(F)F)c3)c3nc(C)ccc3c2=O)c1 -8.93%, CC1C(=O)Nc2ccc(S(=O)(=O)NCc3ccc(N(C)C)cc3)cc2NC1=O (configuration not stated) 7.78%, COc1ccc(OCCn2c(C(C)Oc3ccccc3)nc3ccccc32)cc1 (configuration not stated) -16.3%, Cc1ccc(Cl)cc1-n1ncc2c(NCc3ccc(F)cc3)ncnc21 -10.1%, COc1ccc(-c2cccc(NS(=O)(=O)c3ccc(C)s3)c2)nn1 -11.7%, COCCCNC(=O)c1oc2c(c1C)-c1nn(Cc3ccc(Cl)cc3)cc1CC2 -48.2%, Cc1cc(C)cc(NS(=O)(=O)c2ccc(-n3cccn3)cc2)c1 0.0557%, Cn1cc(CCC(=O)NCc2ccc(Cl)cc2)c2ccccc21 0.757%, CC1CCC(Nc2ncnc3onc(-c4ccc(F)cc4)c23)CC1 (configuration not stated) -8.5%, O=C(O)c1c(-c2ccccc2)oc2ccc(OCc3ccc(Cl)c(Cl)c3)cc12 -16.9%, CCOc1cc(CNc2ccc(C(=O)O)cc2)ccc1OCc1ccccc1 -3.36%, Cn1c(=O)n(C)c2cc(N3CCOCC3)c(NS(=O)(=O)c3ccc(C(C)(C)C)cc3)cc21 -9.75%, CCc1ccc(CNCc2c(C(=O)O)c(C)n(Cc3c(F)cccc3Cl)c2C)cc1 -13.8%, Cc1ccccc1CC1C(=O)Nc2ccc(Br)cc21 (configuration not stated) -9.97%, CCOc1cccc(C(=O)N(Cc2ccc(N(C)C)cc2)CC2CCCO2)c1 (configuration not stated) -9.26%, COc1cccc(-n2c(=O)c3c(C)c(C)sc3n(CC(=O)Nc3ccccc3OC)c2=O)c1 -8.03%, Nc1nc(SCC(=O)Nc2cccc(C(F)(F)F)c2)n[nH]1 -10.5%, CCOC(=O)c1c(-c2ccc(C)cc2)csc1NC(=O)c1cc(-c2ccc(Cl)cc2)on1 0.0078%, CCc1ccccc1NC(=O)N1CCC(CN2CCc3ccccc3C2)CC1 -10.2%, Cc1ccc(C(=O)CCC(=O)Nc2ccc(C)cc2C)cc1 -4.54%, CCOc1ccc(N(C(=O)c2ccccc2F)S(=O)(=O)c2ccc3c(c2)n(C)c(=O)n3C)cc1 -8.67%, CC1CCN(S(=O)(=O)c2ccc3c(ccc(=O)n3CC(=O)Nc3ccc(C(C)C)cc3)c2)CC1 -22%
